# About 25,000 (6.9%) of roughly 360,000 compounds were called active. The shares of active, inactive and inconclusive entries below differ from those in the screen. Calls follow the shape of the dose curve; as a rule, active = well fitted inhibition curve with a large enough effect; inconclusive = small, poorly fitted or top-dose-only effect; inactive = flat fitted curve, though single readings scatter. A potency beside an inconclusive call is a rough fit, not a confirmed value.
# Biological target: Luciferin 4-monooxygenase (Photinus pyralis) (UniProt P08659)
# Assay: qHTS profiling assay for firefly luciferase inhibitor/activator using purifed enzyme and Km concentrations of substrates (counterscreen for miR-21 project); also: nearly all actives have a fitted effect of over 55% in size;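 as to activity change, negative = inhibition: plate controls were vehicle for no effect and reference inhibitor for full effect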
# Conditions: purified FLuc, luminescence inhibition; series mostly up to 57.5 µM; activity change, negative = inhibition: at the top concentration
# Procedure, shortened: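 Purified P. pyralis luciferase (10nM final) with 10uM D-luciferin and 10uM ATP (Km levels) in 50mM Tris acetate pH 7.5, 10mM Mg acetate, 0.01% Tween-20, 0.05% BSA; qHTS 6-point titration, ~60 µM downward; luminescence read.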
# Potency is read from the fitted curve at half-maximal effect; tags tell the direction and shape of the fitted curve.
# Chain of UniProt P08659 (P08659 whole entry, looked up): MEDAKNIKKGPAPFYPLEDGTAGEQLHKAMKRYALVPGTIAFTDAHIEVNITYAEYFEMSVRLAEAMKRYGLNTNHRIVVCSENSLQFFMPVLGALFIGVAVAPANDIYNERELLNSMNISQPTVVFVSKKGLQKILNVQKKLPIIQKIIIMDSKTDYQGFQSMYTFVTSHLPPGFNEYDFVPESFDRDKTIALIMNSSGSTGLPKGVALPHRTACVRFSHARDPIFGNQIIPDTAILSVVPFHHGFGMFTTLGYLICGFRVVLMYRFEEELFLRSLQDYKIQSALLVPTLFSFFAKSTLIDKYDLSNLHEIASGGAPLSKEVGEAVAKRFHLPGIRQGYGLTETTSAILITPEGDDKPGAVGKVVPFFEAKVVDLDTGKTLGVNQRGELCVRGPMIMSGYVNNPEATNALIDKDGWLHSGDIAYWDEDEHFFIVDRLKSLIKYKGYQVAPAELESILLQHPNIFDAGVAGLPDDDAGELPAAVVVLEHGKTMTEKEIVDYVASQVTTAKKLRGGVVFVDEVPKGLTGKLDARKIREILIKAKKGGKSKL
SMILES,Potency,"activity change, negative = inhibition"
Nc1nnc(N2CCc3ccccc32)s1,"inconclusive: 19 µM [inhibitor, partial curve]",–
CC(C)(C)OC(=O)CN1C(=O)S/C(=C\c2ccc(-c3cccc(C(=O)O)c3)o2)C1=O,active: 15.1 µM,–
O=C(OCC(=O)N1CCCC1=O)C1CCN(S(=O)(=O)c2ccc(Cl)c(C(F)(F)F)c2)CC1,"inconclusive: 8.49 µM [inhibitor, partial curve, poor fit]",–
O=C(/C=C/c1cccs1)Nc1sc2c(c1C(=O)O)CCCC2,"inconclusive: 23.9 µM [inhibitor, single point]",–
O=C1NC(=O)/C(=C/c2cc3c(cc2Br)OCO3)S1,"inconclusive: 37.9 µM [inhibitor, single point]",–
Cc1sc2ncnc(SCc3ccc(C(=O)O)cc3)c2c1C,"inconclusive: 37.9 µM [inhibitor, single point]",–
COc1cccc(C(=O)Nc2ccc(NC(=O)C3CCCCC3C(=O)O)cc2)c1 (centres undefined),"inconclusive: 23.9 µM [inhibitor, single point]",–
CC(C)c1nnc(NC(=O)CCC2CCCCC2)s1,–,inactive: -18.1%
O=C(NCCCNc1ccc([N+](=O)[O-])cc1)C(F)(F)F,"inconclusive: 23.9 µM [inhibitor, partial curve, poor fit]",–
Cc1ccc(CNC(=O)c2cc3ccc4cccnc4c3[nH]2)cc1,"inconclusive: 15.1 µM [inhibitor, partial curve]",–
COc1cc(Cl)c(C)cc1NC(c1ccccc1)c1nnc(-c2ccccc2Cl)o1 (centres undefined),"inconclusive: 15.1 µM [inhibitor, partial curve]",–
COc1ccc(-c2noc(-c3ccc(NC4CCCC4)c([N+](=O)[O-])c3)n2)cc1OC,active: 13.5 µM,–
CCOc1ccc(NC(=O)c2ccc3c(=O)n(-c4ccc(OC)cc4OC)c(=S)[nH]c3c2)cc1,"inconclusive: 23.9 µM [inhibitor, partial curve, poor fit]",–
CCOC(=O)c1ccc(CS(=O)c2ccc(Cl)cc2)o1 (centres undefined),–,inactive: 2.9%
CSc1nsc(SCC(=O)Nc2ccc(OC(C)=O)cc2)n1,"inconclusive: 26.9 µM [inhibitor, partial curve, poor fit]",–
CCC(C)n1c(=N)c(C(=O)NC2CCCCC2)cc2c(=O)n3ccccc3nc21 (centres undefined),–,inactive: 1.78%
CC(=O)Nc1ccc2nc(NC(=O)CS(=O)(=O)c3ccc(C)cc3)sc2c1,"inconclusive: 16.9 µM [inhibitor, single point]",–
Cc1ccc(C(=O)O/N=C\c2ccc(N3CCOCC3)c([N+](=O)[O-])c2)cc1,"inconclusive: 23.9 µM [inhibitor, partial curve, poor fit]",–
Cc1ccc(Nc2nnc(SCC(=O)Nc3ccccc3[N+](=O)[O-])s2)cc1,"inconclusive: 5.36 µM [inhibitor, full curve]",–
COc1ccc(C2=Nc3ccc(OC(F)(F)F)cc3NC(c3cccnc3)=N2)cc1,–,inactive: -8.67%
Cc1ccc(-c2nnc(N)o2)cc1,"inconclusive: 21.3 µM [inhibitor, partial curve]",–
CC[C@H](C)Cc1cn([C@@H](CCCCNC(=O)OC(C)(C)C)C(=O)NCCCCCCCCCCC(=O)N2CCN(C(=O)OC(C)(C)C)CC2)nn1,–,inactive: -0.669%

SMILES,Potency,"activity change, negative = inhibition"
Cn1c(N)c(C(=O)c2cc(-c3ccccn3)nc3ccccc23)c(=O)[nH]c1=O,"inconclusive: 23.9 µM [inhibitor, partial curve]",–
c1ccc(CCc2nc3ccccc3[nH]2)cc1,active: 16.9 µM,–
COc1ccc(NC(=O)CSc2cn(CCNC(=O)c3c(F)cccc3F)c3ccccc23)cc1,–,inactive: -15.6%
COc1ccc(-c2onc(C)c2-c2ccc3c(c2)OCCO3)c(O)c1,–,inactive: -10.2%
O=C(O)c1cccc2c1C(=O)c1ccc(-c3ccc(Cl)c(C(F)(F)F)c3)cc1S2(=O)=O,"inconclusive: 22.4 µM [inhibitor, single point]",–
COc1ccc(/C=C/C(=O)Oc2cc(O)cc(O)c2)cc1,active: 15.1 µM,–
CCc1ccc(NC(=O)C2C3C=CC(C4CC34)C2C(=O)O)cc1 (centres undefined),active: 2.13 µM,–
Cc1ccc(O)c(NC(=O)c2cc(-c3ccccc3)on2)c1,"inconclusive: 1.2 µM [inhibitor, full curve]",–
O=C(Nc1ccccc1)Nc1cccc(NC(=O)Nc2ccccc2)c1F,"inconclusive: 1.69 µM [inhibitor, partial curve, poor fit]",–
O=C(NCCc1cscn1)C1CCC(=O)N(Cc2ccc(Cl)cc2)C1 (centres undefined),active: 3.01 µM,–
CCCC(CCC)C(=O)OC1C[C@H]2CC[C@@H](C1)[N+]2(C)C (some centres undefined),–,inactive: 5.91%
Cc1ccc(/C=N/NC(=O)c2ccoc2C)o1,"inconclusive: 21.3 µM [inhibitor, single point]",–
Cc1cccc(C)c1-n1ncc(C(=O)N2CCN(c3ncccn3)CC2)c1C1CCN(C(=O)OC(C)(C)C)CC1,–,inactive: -0.845%
COC(=O)N/N=C/c1ccc(-c2ccc(Cl)cc2Cl)o1,"inconclusive: 15.1 µM [inhibitor, partial curve, poor fit]",–
CCOc1ccc(NC(=O)CC(Cc2ccc(Cl)cc2)C(=O)O)cc1 (centres undefined),–,inactive: 6.23%
COCc1cc(C)nc2sc3c(=O)n(-c4ccccc4C(F)(F)F)nnc3c12,–,inactive: -0.177%
CCc1[nH]c(=S)c(C#N)c2c1CCCC2,"inconclusive: 26.9 µM [inhibitor, single point]",–
O=C(NCCc1ccccc1)c1ccc(NS(=O)(=O)c2ccc3[nH]c(=O)[nH]c3c2)cc1,"inconclusive: 21.3 µM [inhibitor, single point]",–
COc1ccc(OC(=O)c2ccc(Cl)cc2)c(C(C)=O)c1,"inconclusive: 26.9 µM [inhibitor, partial curve, poor fit]",–
Cc1cc(C(=O)NCc2cccs2)cs1,"inconclusive: 23.9 µM [inhibitor, partial curve, poor fit]",–
Cc1ccc(C)c(CSc2nnc3[nH]c(=O)cc(-c4ccccc4)n23)c1,"inconclusive: 7.57 µM [inhibitor, full curve]",–
COc1cc2c(cc1NC(=O)CCCN1C(=O)CCC1=O)oc1ccccc12,"inconclusive: 19 µM [inhibitor, single point]",–
